The text below walks through data of article PMC5800995 (Biochemical pharmacology, 2018).

The target in the test is wild-type human dopamine D2 receptor (D2LR) (Homo sapiens, UniProt P14416). Nature of the test: [^3H]spiperone binding, WT membranes.
Sequence of UniProt P14416 (P14416 whole entry): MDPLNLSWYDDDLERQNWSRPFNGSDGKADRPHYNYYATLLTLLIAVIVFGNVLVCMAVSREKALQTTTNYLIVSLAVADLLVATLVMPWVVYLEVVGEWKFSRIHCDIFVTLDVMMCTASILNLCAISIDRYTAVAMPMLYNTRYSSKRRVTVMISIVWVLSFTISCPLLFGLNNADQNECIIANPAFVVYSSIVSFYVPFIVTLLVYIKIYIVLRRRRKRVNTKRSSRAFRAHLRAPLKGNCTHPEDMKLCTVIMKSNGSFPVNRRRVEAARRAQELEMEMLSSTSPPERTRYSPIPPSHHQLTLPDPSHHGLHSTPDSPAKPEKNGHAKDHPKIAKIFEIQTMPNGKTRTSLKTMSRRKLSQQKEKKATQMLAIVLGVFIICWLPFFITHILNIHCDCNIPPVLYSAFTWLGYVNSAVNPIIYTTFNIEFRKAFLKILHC

In turn, `CC(=O)N[C@H]1CC[C@H](CCN2CCc3ccc(C#N)cc3C2)CC1` [MIPS1059, N-((trans)-4-(2-(7-cyano-3,4-dihydroisoquinolin-2(1H)yl)ethyl)cyclohexyl)acetamide] gave a Kb (pKB Binding ([^3H]spiperone)) of 275 nM.

As for `CCCN1CCc2ccc(C#N)cc2C1` [MIPS1071, 2-propyl-1,2,3,4-tetrahydroisoquinoline-7-carbonitrile], where the note is “KB Binding ([^3H]spiperone)”, the Kb was 1260 nM.

Take `N#Cc1ccc2c(c1)CN(CC[C@H]1CC[C@H](NC(=O)c3cc4cccc(F)c4[nH]3)CC1)CC2` [MIPS1868, N-((trans)-4-(2-(7-Cyano-3,4-dihydroisoquinolin-2(1H)-yl)ethyl)cyclohexyl)-7-fluoro-1H-indole-2-carboxamide]: the Kb (pKB Binding ([^3H]spiperone)) is 162 nM.
